In all, about 310,000 compounds went through this assay and about 2,200 (0.71%) showed an effect of 50% or more. Effects have a minus sign here. This is one part of the list.

Sequence of human ether-à-go-go-related gene (hERG) potassium channel (Q12809 whole entry, looked up): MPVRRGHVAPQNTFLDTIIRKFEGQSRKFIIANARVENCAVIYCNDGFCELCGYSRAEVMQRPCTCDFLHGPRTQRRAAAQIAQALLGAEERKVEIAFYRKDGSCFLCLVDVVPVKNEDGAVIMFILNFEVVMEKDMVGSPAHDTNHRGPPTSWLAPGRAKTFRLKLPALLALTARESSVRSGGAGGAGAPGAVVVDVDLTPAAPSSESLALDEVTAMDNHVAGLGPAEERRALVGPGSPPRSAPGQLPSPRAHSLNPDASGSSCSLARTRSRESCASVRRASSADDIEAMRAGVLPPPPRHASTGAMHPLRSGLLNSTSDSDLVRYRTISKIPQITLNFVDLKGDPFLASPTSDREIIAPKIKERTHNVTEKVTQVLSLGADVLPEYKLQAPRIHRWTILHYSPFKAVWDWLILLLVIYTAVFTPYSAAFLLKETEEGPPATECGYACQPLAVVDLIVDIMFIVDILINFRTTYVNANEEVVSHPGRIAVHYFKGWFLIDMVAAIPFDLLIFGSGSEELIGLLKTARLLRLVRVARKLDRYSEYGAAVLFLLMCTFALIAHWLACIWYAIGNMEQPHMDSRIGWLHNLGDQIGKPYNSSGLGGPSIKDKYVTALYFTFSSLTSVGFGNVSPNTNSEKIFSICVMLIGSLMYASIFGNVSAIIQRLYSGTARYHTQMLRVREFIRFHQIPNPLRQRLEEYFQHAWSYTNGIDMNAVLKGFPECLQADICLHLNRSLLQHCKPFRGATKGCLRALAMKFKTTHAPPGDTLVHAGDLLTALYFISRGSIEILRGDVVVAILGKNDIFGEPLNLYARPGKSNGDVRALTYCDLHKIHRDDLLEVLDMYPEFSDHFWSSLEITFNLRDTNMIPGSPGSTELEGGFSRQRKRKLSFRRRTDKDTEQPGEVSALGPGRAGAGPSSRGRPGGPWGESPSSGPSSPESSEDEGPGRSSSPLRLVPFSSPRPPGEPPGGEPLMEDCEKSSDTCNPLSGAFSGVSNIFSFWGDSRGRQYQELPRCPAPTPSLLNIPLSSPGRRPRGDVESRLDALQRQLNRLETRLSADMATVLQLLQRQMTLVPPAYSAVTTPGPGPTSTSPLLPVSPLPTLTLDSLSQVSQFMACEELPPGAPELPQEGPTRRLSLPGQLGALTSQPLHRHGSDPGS

This test has as its target human ether-à-go-go-related gene (hERG) potassium channel (human, UniProt Q12809). Nature of the test: primary screen, population patch clamp on CHO cells stably expressing hERG.
With `COC(=O)CCCC1=CC2=CC(=O)C(C)(OC(=O)c3cccs3)C(=O)C2=CN1CC(C)C` (centres unmarked), the “hERG current change (%, negative = inhibition) at 1uM” value worked out at 2.76%.
The value for `Cc1cc2occ(CC(=O)NNC(=O)c3ccccc3)c2cc1C` was 12.2%; that for `CCNc1nc(SCC(=O)Nc2ccccc2)nc(N2CCOCC2)n1` was 13.1%; that for `Cc1cc([N+](=O)[O-])cnc1N1CCOCC1` was 8.64%.
For `CCNS(=O)(=O)c1ccc(CCC(=O)NCc2ccc3c(c2)OCO3)cc1`, the “hERG current change (%, negative = inhibition) at 1uM” value is given as 8.39%.
Take `COC(=O)COc1ccc(NC(=O)C(c2ccccc2)c2ccccc2)cc1`: the “hERG current change (%, negative = inhibition) at 1uM” value is 6.63%.
The value for `Cc1sc2nc(CSCC(=O)Nc3ccccc3C#N)[nH]c(=O)c2c1C` was 10.2%; that for `CS(=O)(=O)N(CCc1ccccc1)CC(=O)N1CCN(c2ccc(F)cc2)CC1` was -2.09%.
The result for `Cc1occc1C(=O)NNS(=O)(=O)c1ccc(Cl)cc1` reads 11.3%.
With `COC(=O)C(C)Sc1nc2ccsc2c(=O)n1Cc1ccccc1` (centres unmarked), the “hERG current change (%, negative = inhibition) at 1uM” value was 1.03%.
Turning to `CC(O)CNC(=O)Cc1cc(=O)[nH]c(=O)[nH]1` (centres unmarked), the “hERG current change (%, negative = inhibition) at 1uM” value amounted to 8.83%.
For the compound `CC(C)Oc1ccccc1/C=N/NC(=O)c1ccccc1Cl`, the “hERG current change (%, negative = inhibition) at 1uM” value is 2.32%.
As to `O=C(Cn1ncc2c([nH]c3ccccc32)c1=O)NCCc1ccccc1`, the “hERG current change (%, negative = inhibition) at 1uM” value came to 6.68%.
Regarding `CCN(C(=O)COC(=O)c1c(C)nsc1NC)c1ccccc1`, the “hERG current change (%, negative = inhibition) at 1uM” value amounted to 6.44%.
For `Cc1cc(C(F)(F)F)n2ncc(-c3ccc(F)cc3)c2n1`, the “hERG current change (%, negative = inhibition) at 1uM” value is reported as 14.1%.
For the compound `Cn1cc(C(=O)N2CCCC(Nc3ccc(F)cc3)C2)c2ccccc21` (centres unmarked), the “hERG current change (%, negative = inhibition) at 1uM” value is recorded as 10.4%.
Regarding `COc1cccc(C(=O)Nc2ccc(S(=O)(=O)N3CCCCC3)cc2)c1OC`, the “hERG current change (%, negative = inhibition) at 1uM” value amounted to 10.3%.
Regarding `CCS(=O)(=O)N1CCN=C1SCc1cccnc1`, the “hERG current change (%, negative = inhibition) at 1uM” value is -5.74%.
For `Cc1cccc(-n2ncc3c2CCCC3NC(=O)CN2CCOC2=O)c1C` (centres unmarked), the “hERG current change (%, negative = inhibition) at 1uM” value came to 14.9%.
For the compound `COc1cc(C(=O)NCc2nnc(SCC(=O)Nc3cc(C)on3)o2)cc(OC)c1OC`, the “hERG current change (%, negative = inhibition) at 1uM” value is reported as 8.67%.
Take `Cc1ccc(CC(=O)N2CC(C)OC(C)C2)cc1` (centres unmarked): the “hERG current change (%, negative = inhibition) at 1uM” value is reported as 12.8%.
As for `Cc1ccc(S(=O)(=O)NCC2CCC(C(=O)NCCCN3CCOCC3)CC2)cc1` (centres unmarked), the “hERG current change (%, negative = inhibition) at 1uM” value turned out to be 15.4%.
In the case of `Cc1ccc(C2C3=C(CC(C)(C)CC3=O)Nc3[nH]c(=S)[nH]c(=O)c32)cc1` (centres unmarked), the “hERG current change (%, negative = inhibition) at 1uM” value turned out to be 16.1%.
As for `Cc1sc(NC(=O)CN(C)C2CCCCC2)nc1-c1ccc2c(c1)CCN2S(=O)(=O)c1ccccc1`, the “hERG current change (%, negative = inhibition) at 1uM” value is reported as 14%.
The value for `CC(C)(C)C(=O)/C=c1\s/c(=C\c2ccc(-c3ccc([N+](=O)[O-])cc3)o2)c(=O)n1CC(=O)NC(N)=O` was 10.6%.
The result for `COc1ccc(N2CCN(C(=O)CSc3nc4[nH]ncc4c(=O)n3-c3cccc4ccccc34)CC2)cc1` reads 7.98%.
On to `COc1ccc2c(c1)c(C(C)=O)c(C)n2C`, for which the “hERG current change (%, negative = inhibition) at 1uM” value came to 8.11%.
With `CC1CN(C(=O)c2ccccc2OCc2ccccc2Cl)CC(C)O1` (centres unmarked), the “hERG current change (%, negative = inhibition) at 1uM” value was 6.64%.
As to `COc1cc2nc(CN(CCC(C)C)Cc3nc4cc(OC)c(OC)cc4c(=O)[nH]3)[nH]c(=O)c2cc1OC`, the “hERG current change (%, negative = inhibition) at 1uM” value came out at 4.31%.
The value for `O=C(NCCCN1CCOCC1)c1ccc(-n2nc(C(F)(F)F)cc2-c2cccs2)cc1` was -15.8%.
The value for `CC(C)(C)NC(=O)Nc1ccc(Br)cc1` was 2.4%; that for `CCC/C(=N\NC(=O)Cc1csc(N2CCOCC2)n1)c1ccccc1` was 0.381%.
On to `COC(=O)c1cc(NS(=O)(=O)c2ccc(N3CCCCCC3)c([N+](=O)[O-])c2)cc(C(=O)OC)c1`, for which the “hERG current change (%, negative = inhibition) at 1uM” value came out at 7.92%.
The result for `CCN(CC)CCNS(=O)(=O)c1ccc(Cl)cc1.Cl` reads 6.58%; that for `COc1c2occc2c(OC)c2c(=O)cc(C(F)(F)F)oc12`, 12%; that for `Cc1nnc(NC(=O)CSc2nccn2-c2cccc(C)c2C)s1`, 11.4%.
The value for `Cc1ccc(CNC(=O)C2CCN(S(=O)(=O)c3ccc4c(c3)CC(C)N4C(=O)C3CCC3)CC2)o1` (centres unmarked) was 14.1%; that for `Cc1sc(NC(=O)CSc2nc(N)cc(N)n2)c(C#N)c1C` was 13.6%.
The value for `COc1cc(-c2cc(C(=O)Nc3ccccc3N3CCOCC3)c3ccccc3n2)cc(OC)c1OC` was 1.6%; that for `Cc1csc(NC(=O)C2=NN(c3ccccc3)C(=O)CC2)n1` was 9.03%; that for `C=CCc1cc(Cl)ccc1OCCOCCNC(C)CC.O=C(O)C(=O)O` (centres unmarked) was -19.1%.
Take `COc1ccc(S(=O)(=O)N2CCSCC2)cc1C(N)=O`: the “hERG current change (%, negative = inhibition) at 1uM” value came out at 19.9%.
The result for `Cc1ccc(C)c(Cn2c(=O)n(CCCC(=O)NCc3ccco3)c(=O)c3sccc32)c1` reads -10.2%; that for `O=S(=O)(c1ccccc1)N1CCN(c2ccnc3cc(Cl)ccc23)CC1`, -79.9%; that for `Cc1nnn(C23CC4CC(CC(C4)C2)C3)n1`, 7.15%.
In the case of `COCCn1c(SCC#N)nnc1-c1ccccc1`, the “hERG current change (%, negative = inhibition) at 1uM” value was 2.89%.
Turning to `CN(CC(=O)Nc1cccc2ccccc12)C(=O)c1ccc(F)cc1F`, the “hERG current change (%, negative = inhibition) at 1uM” value amounted to 9.11%.
The result for `O=[N+]([O-])c1ccc(N2CCN(S(=O)(=O)c3ccccc3[N+](=O)[O-])CC2)cc1NCc1cccnc1` reads 7.4%.
On to `O=C(N/N=C\c1ccc(F)cc1)c1csnn1`, for which the “hERG current change (%, negative = inhibition) at 1uM” value is listed as 5.64%.
For the compound `CCC1CCCCN1C(=O)COC(=O)c1cc(C)nc2ccccc12` (centres unmarked), the “hERG current change (%, negative = inhibition) at 1uM” value is 4.54%.
In the case of `O=C(Nc1nnc(C2=COCCO2)o1)c1ccc(Cc2ccccc2)cc1`, the “hERG current change (%, negative = inhibition) at 1uM” value was -0.929%.
The result for `C=CCOC(=O)C1CC=CCC1C(=O)Oc1ccc(F)cc1F` (centres unmarked) reads 8.43%; that for `COc1cc2c(cc1OC)/C(=C/C(=O)c1ccc(OC)c([N+](=O)[O-])c1)NCC2`, 6.98%; that for `Cc1noc(C)c1C(=O)N1CCN(c2ccc(OCc3ccccc3)cc2)CC1`, 11.3%.
As to `N#Cc1nc(Cc2cccc3ccccc23)oc1NCc1ccc(F)cc1`, the “hERG current change (%, negative = inhibition) at 1uM” value was 6.63%.
As to `CCCCCCSc1nsc(NC(=O)CC(C)C)n1`, the “hERG current change (%, negative = inhibition) at 1uM” value was -6.26%.

(Values after paper PMC4336329 (PLoS ONE, 2015).)
